Data taken from paper PMC2946606.
Positions count from the first letter of the chain named. Results are given in words; binding and its absence hold for the method and conditions named. In cells and extracts the contact can be indirect. Some binding calls cover weakened binding; strength is not graded here. For some assays here: Where a sequence is shown, tags or fusion partners need not be part of it. Blank lines part the entries; values can stand above or below the molecule they belong to.

Amino acid sequences for entries named in this document (tags omitted). A change or cut given only in a name is not applied to a line headed by its entry. Residues count along the entry.
UniProt Q925J9, residues 1470-1570: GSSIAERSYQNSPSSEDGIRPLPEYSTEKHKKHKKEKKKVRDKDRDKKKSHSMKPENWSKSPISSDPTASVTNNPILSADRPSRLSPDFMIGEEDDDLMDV
UniProt P03372: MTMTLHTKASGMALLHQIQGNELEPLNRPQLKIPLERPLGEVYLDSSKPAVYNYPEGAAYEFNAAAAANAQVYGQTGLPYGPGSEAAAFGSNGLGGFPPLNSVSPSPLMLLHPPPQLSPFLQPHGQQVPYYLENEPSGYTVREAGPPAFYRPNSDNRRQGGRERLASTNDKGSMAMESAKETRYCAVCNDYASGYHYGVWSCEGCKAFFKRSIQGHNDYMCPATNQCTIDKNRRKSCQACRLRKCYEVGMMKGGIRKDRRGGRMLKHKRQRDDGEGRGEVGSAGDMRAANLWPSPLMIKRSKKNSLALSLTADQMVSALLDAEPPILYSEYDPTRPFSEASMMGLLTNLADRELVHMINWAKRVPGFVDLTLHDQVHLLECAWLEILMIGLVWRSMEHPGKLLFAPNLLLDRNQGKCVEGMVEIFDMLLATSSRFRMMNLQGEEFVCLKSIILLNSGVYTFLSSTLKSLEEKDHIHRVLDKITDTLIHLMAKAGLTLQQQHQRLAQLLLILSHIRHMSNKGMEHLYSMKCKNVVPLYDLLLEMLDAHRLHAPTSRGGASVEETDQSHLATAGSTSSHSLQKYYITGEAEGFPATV
UniProt P19793: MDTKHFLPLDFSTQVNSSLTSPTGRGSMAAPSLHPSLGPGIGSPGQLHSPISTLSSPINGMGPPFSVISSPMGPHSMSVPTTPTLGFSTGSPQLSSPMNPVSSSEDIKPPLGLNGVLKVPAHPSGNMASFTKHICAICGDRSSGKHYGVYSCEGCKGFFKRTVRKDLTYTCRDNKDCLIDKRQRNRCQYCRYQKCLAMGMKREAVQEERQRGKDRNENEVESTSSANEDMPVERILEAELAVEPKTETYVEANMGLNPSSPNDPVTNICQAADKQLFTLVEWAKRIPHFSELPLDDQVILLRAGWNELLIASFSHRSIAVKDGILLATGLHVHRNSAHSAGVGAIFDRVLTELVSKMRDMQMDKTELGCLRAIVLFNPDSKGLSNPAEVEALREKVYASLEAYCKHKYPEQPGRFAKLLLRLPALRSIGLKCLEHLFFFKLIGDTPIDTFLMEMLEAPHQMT
UniProt Q92616: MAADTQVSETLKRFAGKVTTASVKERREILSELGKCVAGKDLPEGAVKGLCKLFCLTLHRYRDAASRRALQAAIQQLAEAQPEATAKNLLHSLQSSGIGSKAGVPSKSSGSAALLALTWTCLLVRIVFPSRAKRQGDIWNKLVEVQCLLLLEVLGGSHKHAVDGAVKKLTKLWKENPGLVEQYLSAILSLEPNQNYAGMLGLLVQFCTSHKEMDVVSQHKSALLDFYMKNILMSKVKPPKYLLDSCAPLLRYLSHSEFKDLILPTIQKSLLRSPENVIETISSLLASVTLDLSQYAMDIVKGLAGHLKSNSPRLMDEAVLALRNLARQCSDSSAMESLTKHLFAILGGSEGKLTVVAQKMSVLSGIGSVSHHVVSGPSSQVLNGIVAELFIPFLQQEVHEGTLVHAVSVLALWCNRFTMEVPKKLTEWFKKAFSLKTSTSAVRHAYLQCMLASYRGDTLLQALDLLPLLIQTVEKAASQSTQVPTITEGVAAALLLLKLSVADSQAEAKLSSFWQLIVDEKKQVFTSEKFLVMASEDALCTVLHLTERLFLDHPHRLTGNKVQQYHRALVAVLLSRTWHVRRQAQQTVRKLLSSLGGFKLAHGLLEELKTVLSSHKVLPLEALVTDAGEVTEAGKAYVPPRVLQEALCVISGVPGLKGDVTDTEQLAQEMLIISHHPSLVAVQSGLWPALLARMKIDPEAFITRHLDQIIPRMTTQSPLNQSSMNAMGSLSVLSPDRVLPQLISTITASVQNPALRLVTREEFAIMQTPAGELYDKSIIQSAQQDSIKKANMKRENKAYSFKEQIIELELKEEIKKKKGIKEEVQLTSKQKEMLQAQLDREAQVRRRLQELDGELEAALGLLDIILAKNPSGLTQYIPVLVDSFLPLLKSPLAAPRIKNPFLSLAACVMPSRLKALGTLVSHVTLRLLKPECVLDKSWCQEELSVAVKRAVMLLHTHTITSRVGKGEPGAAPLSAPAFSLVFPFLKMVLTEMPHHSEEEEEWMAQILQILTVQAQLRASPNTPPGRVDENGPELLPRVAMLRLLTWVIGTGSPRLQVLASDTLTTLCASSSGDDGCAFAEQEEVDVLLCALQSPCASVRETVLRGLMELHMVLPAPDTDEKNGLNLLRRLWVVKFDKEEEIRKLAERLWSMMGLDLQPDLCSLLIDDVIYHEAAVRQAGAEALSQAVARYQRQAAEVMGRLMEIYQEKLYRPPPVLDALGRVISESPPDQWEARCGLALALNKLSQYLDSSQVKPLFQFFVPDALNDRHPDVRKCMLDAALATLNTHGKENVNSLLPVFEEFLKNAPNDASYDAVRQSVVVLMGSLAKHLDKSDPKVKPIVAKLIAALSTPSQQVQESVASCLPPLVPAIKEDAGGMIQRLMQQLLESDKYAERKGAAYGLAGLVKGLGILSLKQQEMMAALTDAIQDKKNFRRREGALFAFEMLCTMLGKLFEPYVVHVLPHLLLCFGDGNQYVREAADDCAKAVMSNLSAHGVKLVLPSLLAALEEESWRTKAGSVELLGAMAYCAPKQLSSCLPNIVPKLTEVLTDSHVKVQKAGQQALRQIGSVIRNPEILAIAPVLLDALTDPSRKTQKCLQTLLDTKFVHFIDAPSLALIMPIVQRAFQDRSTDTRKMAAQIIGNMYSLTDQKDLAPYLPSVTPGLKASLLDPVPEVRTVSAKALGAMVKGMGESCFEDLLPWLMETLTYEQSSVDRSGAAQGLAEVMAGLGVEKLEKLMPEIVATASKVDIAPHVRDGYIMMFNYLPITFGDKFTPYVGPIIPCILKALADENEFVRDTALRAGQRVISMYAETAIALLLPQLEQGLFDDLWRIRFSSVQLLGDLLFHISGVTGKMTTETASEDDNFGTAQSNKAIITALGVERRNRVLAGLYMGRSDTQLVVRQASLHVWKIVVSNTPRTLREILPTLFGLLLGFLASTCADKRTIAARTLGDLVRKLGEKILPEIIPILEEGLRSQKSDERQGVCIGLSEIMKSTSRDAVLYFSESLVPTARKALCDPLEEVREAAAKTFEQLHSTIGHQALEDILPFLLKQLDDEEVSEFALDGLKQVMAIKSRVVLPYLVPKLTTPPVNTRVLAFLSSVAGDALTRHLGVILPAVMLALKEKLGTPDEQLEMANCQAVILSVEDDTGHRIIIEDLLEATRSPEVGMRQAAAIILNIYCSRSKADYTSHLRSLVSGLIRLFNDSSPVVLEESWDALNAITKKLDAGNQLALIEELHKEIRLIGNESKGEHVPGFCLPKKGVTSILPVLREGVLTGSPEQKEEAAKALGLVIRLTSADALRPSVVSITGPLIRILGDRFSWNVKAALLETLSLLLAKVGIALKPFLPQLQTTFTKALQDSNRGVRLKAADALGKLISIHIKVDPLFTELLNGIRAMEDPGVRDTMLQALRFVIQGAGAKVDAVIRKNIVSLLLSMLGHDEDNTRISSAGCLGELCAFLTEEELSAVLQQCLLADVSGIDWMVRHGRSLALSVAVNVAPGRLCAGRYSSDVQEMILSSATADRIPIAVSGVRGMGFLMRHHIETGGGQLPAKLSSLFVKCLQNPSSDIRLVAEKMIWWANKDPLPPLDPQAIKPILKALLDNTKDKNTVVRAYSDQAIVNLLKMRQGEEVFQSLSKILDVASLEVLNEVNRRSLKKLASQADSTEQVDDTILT
UniProt Q15648: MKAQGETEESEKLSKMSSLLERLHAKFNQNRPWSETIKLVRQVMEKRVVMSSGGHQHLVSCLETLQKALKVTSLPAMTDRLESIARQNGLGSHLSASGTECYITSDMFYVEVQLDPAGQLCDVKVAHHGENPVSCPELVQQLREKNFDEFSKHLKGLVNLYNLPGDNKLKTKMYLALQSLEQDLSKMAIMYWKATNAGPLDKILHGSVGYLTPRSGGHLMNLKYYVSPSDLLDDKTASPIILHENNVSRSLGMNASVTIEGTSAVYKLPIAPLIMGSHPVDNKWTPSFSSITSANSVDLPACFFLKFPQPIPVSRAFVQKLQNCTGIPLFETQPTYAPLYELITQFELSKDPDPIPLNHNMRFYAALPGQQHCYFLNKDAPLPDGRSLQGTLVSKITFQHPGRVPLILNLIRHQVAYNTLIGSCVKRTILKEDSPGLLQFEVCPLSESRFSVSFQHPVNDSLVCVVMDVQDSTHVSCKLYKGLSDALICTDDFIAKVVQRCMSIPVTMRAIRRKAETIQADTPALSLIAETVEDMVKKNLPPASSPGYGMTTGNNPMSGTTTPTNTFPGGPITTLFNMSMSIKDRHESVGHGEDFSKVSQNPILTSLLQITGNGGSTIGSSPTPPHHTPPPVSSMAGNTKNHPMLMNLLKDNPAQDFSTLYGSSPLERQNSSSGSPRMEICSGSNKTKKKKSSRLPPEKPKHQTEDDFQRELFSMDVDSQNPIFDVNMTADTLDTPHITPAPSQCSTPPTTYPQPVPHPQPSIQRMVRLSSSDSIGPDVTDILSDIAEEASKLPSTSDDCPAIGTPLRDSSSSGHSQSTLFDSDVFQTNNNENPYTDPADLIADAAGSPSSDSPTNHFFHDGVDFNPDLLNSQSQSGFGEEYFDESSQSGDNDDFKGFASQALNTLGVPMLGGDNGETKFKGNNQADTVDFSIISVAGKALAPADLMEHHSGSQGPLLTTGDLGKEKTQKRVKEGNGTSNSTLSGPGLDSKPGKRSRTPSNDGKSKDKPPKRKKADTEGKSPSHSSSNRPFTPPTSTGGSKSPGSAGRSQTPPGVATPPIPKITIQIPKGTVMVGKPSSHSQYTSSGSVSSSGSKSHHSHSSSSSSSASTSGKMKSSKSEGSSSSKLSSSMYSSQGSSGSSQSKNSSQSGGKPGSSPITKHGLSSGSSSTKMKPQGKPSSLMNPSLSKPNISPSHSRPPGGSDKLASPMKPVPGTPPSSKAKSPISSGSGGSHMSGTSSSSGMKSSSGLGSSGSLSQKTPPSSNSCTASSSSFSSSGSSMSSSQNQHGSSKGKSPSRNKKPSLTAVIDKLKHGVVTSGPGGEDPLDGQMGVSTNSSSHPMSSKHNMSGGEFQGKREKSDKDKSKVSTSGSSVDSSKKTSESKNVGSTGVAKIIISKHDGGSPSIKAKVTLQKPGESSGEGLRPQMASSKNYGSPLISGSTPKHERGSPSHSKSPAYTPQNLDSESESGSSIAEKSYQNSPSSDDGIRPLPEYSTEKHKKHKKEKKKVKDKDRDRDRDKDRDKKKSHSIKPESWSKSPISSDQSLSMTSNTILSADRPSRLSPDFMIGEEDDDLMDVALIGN

Tests used:
GST-ΔPBP^1470–1570 = GST-ΔPBP^1470–1570 (UniProt Q925J9); assay: pull-down; GST or GST-fusion protein on glutathione sepharose 4B beads, incubated with in vitro translated 35S-methionine PRIC295 or its fragments, 4°C, 2 hours, gentle shaker; washed, SDS-PAGE, autoradiography; nuclear receptors without and with receptor-specific ligand (10 μM to 100 μM); only the target purified
GST-ERα = GST-ERα (UniProt P03372); assay: as above
GST-CAR = target: T1, GST-CAR (UniProt O35627); assay: as above
T1 sequence: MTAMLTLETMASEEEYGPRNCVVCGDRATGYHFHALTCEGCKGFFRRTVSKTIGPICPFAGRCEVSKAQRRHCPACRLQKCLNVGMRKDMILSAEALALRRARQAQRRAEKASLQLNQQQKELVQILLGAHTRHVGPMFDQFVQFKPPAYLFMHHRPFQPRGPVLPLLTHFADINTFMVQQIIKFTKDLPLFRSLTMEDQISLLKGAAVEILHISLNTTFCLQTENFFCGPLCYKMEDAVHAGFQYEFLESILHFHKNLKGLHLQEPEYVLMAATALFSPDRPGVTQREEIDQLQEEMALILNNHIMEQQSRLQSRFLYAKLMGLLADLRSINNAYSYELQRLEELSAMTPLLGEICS

GST-PPARα = target: T2, GST-PPARα (UniProt P23204); assay: as above
T2 sequence: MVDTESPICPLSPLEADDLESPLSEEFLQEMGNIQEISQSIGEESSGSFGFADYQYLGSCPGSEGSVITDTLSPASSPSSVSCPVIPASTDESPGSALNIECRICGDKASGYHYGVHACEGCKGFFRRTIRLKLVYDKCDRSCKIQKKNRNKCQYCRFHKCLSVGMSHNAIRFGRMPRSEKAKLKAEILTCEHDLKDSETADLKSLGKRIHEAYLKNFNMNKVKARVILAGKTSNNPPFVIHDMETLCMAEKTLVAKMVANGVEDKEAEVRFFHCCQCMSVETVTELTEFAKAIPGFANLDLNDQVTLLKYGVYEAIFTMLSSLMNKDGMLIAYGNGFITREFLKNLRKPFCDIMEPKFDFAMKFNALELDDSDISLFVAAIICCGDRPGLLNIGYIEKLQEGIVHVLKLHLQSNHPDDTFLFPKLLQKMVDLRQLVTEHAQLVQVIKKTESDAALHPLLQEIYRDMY

GST-RXRα = GST-RXRα (UniProt P19793); assay: as above
PRIC295-3xFLAG (human) = PRIC295-3xFLAG (human) (UniProt Q92616); assay: co-IP; HeLa cells transfected with PRIC295-3xFLAG; nuclear extract, resin covalently bound with anti-FLAG M2 antibody; immunoblot for PPARα, Med24 and Med1
[1] = target: T3, PPARα in rat liver nuclear extract (rat (endogenous in rat liver)) (UniProt P37230); assay: pull-down; ciprofibrate-Sepharose, rat liver nuclear extract; the bound protein complex immunoblotted for PPARα, Med24/TRAP100 and Med1
T3 sequence: T2 sequence with I41L, G50S, V85A, I86V, A88T, S96N, V135A, G207A, D265N

binding (GST-ΔPBP^1470–1570): binds weakly
binding (GST-ERα): binds
binding (GST-CAR): binds
binding (GST-PPARα): binds
binding (GST-RXRα): binds
Molecule: ΔPRIC295^840–1815 (F2), in vitro translated (from UniProt Q92616 840-1815) (domain or fragment)

binding (PRIC295-3xFLAG (human)): binds
Molecule: Med1 in HeLa nuclear extract (from UniProt Q15648 1-1581)

binding (GST-ΔPBP^1470–1570): binds
binding (GST-PPARα): binds
binding (GST-RXRα): binds
Molecule: ΔPRIC295^1–915 (F1), in vitro translated (from UniProt Q92616 1-915) (domain or fragment)

binding (GST-ΔPBP^1470–1570): binds weakly
binding (GST-PPARα): no binding
Molecule: ΔPRIC295^1740–2671 (F3), in vitro translated (from UniProt Q92616 1740-2671) (domain or fragment)

binding (PRIC295-3xFLAG (human)): binds
B1: PPARα in HeLa nuclear extract (receptor, UniProt Q07869 1-468)
chain: MVDTESPLCPLSPLEAGDLESPLSEEFLQEMGNIQEISQSIGEDSSGSFGFTEYQYLGSCPGSDGSVITDTLSPASSPSSVTYPVVPGSVDESPSGALNIECRICGDKASGYHYGVHACEGCKGFFRRTIRLKLVYDKCDRSCKIQKKNRNKCQYCRFHKCLSVGMSHNAIRFGRMPRSEKAKLKAEILTCEHDIEDSETADLKSLAKRIYEAYLKNFNMNKVKARVILSGKASNNPPFVIHDMETLCMAEKTLVAKLVANGIQNKEAEVRIFHCCQCTSVETVTELTEFAKAIPGFANLDLNDQVTLLKYGVYEAIFAMLSSVMNKDGMLVAYGNGFITREFLKSLRKPFCDIMEPKFDFAMKFNALELDDSDISLFVAAIICCGDRPGLLNVGHIEKMQEGIVHVLRLHLQSNHPDDIFLFPKLLQKMADLRQLVTEHAQLVQIIKKTESDAALHPLLQEIYRDMY

binding [1]: binds
B2: Med24/TRAP100 in rat liver nuclear extract (protein, UniProt Q4V8B3 1-987)
chain: MKVVNLKQAILQAWKERWSDYQWAINMKKFFPKGATWDILNLAEALLEQAMIGPSPNPLILSYLKYAISSQMVSYSSVLTAISKFDDFSRDLCVQALLDIMDMFCDRLSCHGKAEECIGLCRALLSALHWLLRCTAASAERLQEGLEAGSAVTGEKQLALCLQCLEKTLSSTKNRALLHIAKLEEASSWTAIEHCLLKLGEILANLSNPQLRSQAEHCGTLIRSIPTMLSVHSEQLHKTGFPTIHALILLEGTMNLTGEMQPLVEQLMMVKRMQHIPTPLFVLEIWKACFVGLIESPEGTQELKWTAFTYLKIPQVLVKLKKYFHGDKDFTEDVNCAFEFLLKLTPLLDKADQRCNCDCTNFLLQECNKQGLLSEASFASLVSKRTADRDPQLKSSENANIQPNPGLILRAEPTVTNILKTMDADHSKSPEGLLGVLGHMLSGKSLDLLLAAAAATGKLKSFARKFINLNEFTTHGSGESTKTASVRALLFDISFLMLCHVAQTYGSEVILSESSSGEEVPFFETWMQTCMPEEGKILNPDHPCFRPDSTKVESLVALLNNSSEMKLVQMKWHEACLSISAAILEILNAWENGVLAFESIQKITDNIKGKVCSLAVCAVAWLVAHVRMLGLDEREKSLQMIRQLAGPLYSENTLQFYNERVVIMNSILEHMCADVLQQTATQIKFPSTGVDTMPYWNLLPPKRPIKEVLTDIFAKVLEKGWVDSRSIHILDTLLHMGGVYWFCNNLIKELLKETRKEHTLRAVQLLYSIFCLDMQQVTLVLLGHILPGLLTDSSKWHSLMDPPGTALAKLAVWCALSSYSSHKGQASSRQKKRHREDIEDYISLFPVEDMQPSKLMRLLSSNEDDASILSSPTDRSMNSSLSASQLHTVNMRDPLNRVLANLFLLISSVLGSRTAGPHTQFVQWFMEECVDCLEQDSRGSILQFMPFTTVSELVKVSAMSSPKVVLAITDLSLPLGRQVAAKAIAAL

binding (PRIC295-3xFLAG (human)): binds
B3: Med24/TRAP100 in HeLa nuclear extract (protein, UniProt O75448 1-989)
chain: MKVVNLKQAILQAWKERWSDYQWAINMKKFFPKGATWDILNLADALLEQAMIGPSPNPLILSYLKYAISSQMVSYSSVLTAISKFDDFSRDLCVQALLDIMDMFCDRLSCHGKAEECIGLCRALLSALHWLLRCTAASAERLREGLEAGTPAAGEKQLAMCLQRLEKTLSSTKNRALLHIAKLEEASSWTAIEHSLLKLGEILANLSNPQLRSQAEQCGTLIRSIPTMLSVHAEQMHKTGFPTVHAVILLEGTMNLTGETQSLVEQLTMVKRMQHIPTPLFVLEIWKACFVGLIESPEGTEELKWTAFTFLKIPQVLVKLKKYSHGDKDFTEDVNCAFEFLLKLTPLLDKADQRCNCDCTNFLLQECGKQGLLSEASVNNLMAKRKADREHAPQQKSGENANIQPNIQLILRAEPTVTNILKTMDADHSKSPEGLLGVLGHMLSGKSLDLLLAAAAATGKLKSFARKFINLNEFTTYGSEESTKPASVRALLFDISFLMLCHVAQTYGSEVILSESRTGAEVPFFETWMQTCMPEEGKILNPDHPCFRPDSTKVESLVALLNNSSEMKLVQMKWHEACLSISAAILEILNAWENGVLAFESIQKITDNIKGKVCSLAVCAVAWLVAHVRMLGLDEREKSLQMIRQLAGPLFSENTLQFYNERVVIMNSILERMCADVLQQTATQIKFPSTGVDTMPYWNLLPPKRPIKEVLTDIFAKVLEKGWVDSRSIHIFDTLLHMGGVYWFCNNLIKELLKETRKEHTLRAVELLYSIFCLDMQQVTLVLLGHILPGLLTDSSKWHSLMDPPGTALAKLAVWCALSSYSSHKGQASTRQKKRHREDIEDYISLFPLDDVQPSKLMRLLSSNEDDANILSSPTDRSMSSSLSASQLHTVNMRDPLNRVLANLFLLISSILGSRTAGPHTQFVQWFMEECVDCLEQGGRGSVLQFMPFTTVSELVKVSAMSSPKVVLAITDLSLPLGRQVAAKAIAAL
